Results taken from PubChem BioAssay (NCATS).
“And” between values parts separate entries of the source, which are not always exact repeats. Identical values can stand only once. This list was built around the results that the source calls inconclusive (neither active nor inactive); the mix of calls is not that of the screen. For some of these results: Potencies of inconclusive entries are doubtful fits and often do not repeat. The source made the active and inactive calls. Unless noted, calls come from the whole dose curve; as a rule, active = well fitted curve in the direction sought with a large enough effect; inconclusive = small, poorly fitted or top-dose-only effect, or another doubt; inactive = no such curve, though single readings can be large; an effect the other way counts as inactive or inconclusive.

What was measured:
[1] = molecular target: Cytochrome P450 3A7 (Homo sapiens) (UniProt P24462); test: Cytochrome P450 family 3 subfamily A member 7 (CYP3A7) small molecule antagonists: luciferase biochemical qHTS assay (AID 1963596); note: potency is the fitted concentration of half-maximal effect; nearly all actives have a fitted effect of over 40% in size
UniProt P24462, sequence (P24462 whole entry, looked up): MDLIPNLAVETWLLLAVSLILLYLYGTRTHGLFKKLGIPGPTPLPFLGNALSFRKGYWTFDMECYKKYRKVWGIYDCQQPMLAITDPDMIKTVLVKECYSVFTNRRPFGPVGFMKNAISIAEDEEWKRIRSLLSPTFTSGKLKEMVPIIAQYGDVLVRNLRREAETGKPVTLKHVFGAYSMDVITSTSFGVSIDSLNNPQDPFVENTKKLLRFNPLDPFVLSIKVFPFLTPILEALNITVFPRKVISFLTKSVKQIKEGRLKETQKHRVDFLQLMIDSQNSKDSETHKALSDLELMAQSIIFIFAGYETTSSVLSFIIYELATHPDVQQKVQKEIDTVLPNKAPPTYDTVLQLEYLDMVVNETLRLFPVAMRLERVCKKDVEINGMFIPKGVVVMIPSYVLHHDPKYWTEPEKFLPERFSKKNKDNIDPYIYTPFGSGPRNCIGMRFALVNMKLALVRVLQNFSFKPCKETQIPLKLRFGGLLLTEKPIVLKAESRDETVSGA
Procedure, shortened: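 Luminescence read-out (relative luminescence units) after 20 min with detection reagent, which stops the reaction. Enzyme, proluciferin substrate and compound preincubated 10 min, RT; NADPH regeneration system then started 1 h reaction. Ketoconazole as positive control.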

[2] = Viability qHTS for spleen associated tyrosine kinase inhibitor (SYKi) naive MV4-11 cells (AID 1963823); note: nearly all actives have a fitted effect of over 40% in size; note: potency is the fitted concentration of half-maximal effect
Procedure, shortened: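 CellTiter-Glo luminescence, 10 min room-temperature incubation, gave viability. Cells: naive MV4-11 (500/well), treated 72 hr at 37 C, 5% CO2.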

[3] = Viability qHTS for spleen associated tyrosine kinase inhibitor (SYKi) drug resistant MV4-11 cells (AID 1963824); note: nearly all actives have a fitted effect of over 35% in size; note: potency is the fitted concentration of half-maximal effect
Procedure, shortened: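 CellTiter-Glo luminescence, read 10 min after reagent addition, reports viability after a 72 hr compound exposure. Cells are an MV4-11 line made resistant to SYK inhibition, seeded at 500 per well onto compound-containing plates.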

[4] = Quantitative highthroughput screen to assess conditional lethalithy of NOMO1 cells grown in RPMI1640 with untreated serum (RPMI+s) (AID 1963876); note: potency is the fitted concentration of half-maximal effect; nearly all actives have a fitted effect of over 35% in size
Procedure, shortened: (§1)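 Each medium arm—HPLM with 10% dialyzed FBS, or RPMI1640 with 5 mM glucose and 10% untreated or dialyzed FBS—was screened against an 11-point, 3-fold compound titration for 48 h at 37 °C, with CellTiter-Glo luminescence as endpoint.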

[5] = Quantitative highthroughput screen to assess conditional lethalithy of NOMO1 cells grown in RPMI1640 with dialyzed fetal bovine serum (RPMI+ds) (AID 1963877); note: potency is the fitted concentration of half-maximal effect; nearly all actives have a fitted effect of over 30% in size
Procedure, shortened: as §1

[6] = Quantitative highthroughput screen to assess conditional lethalithy of NOMO1 cells grown in Human Plasma-Like Medium with dialyzed fetal bovine serum (HPLM+ds) (AID 1963878); note: nearly all actives have a fitted effect of over 35% in size; note: potency is the fitted concentration of half-maximal effect;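 for Viability: 100% = DMSO wells and 0% = empty wells on each plate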
Procedure, shortened: as §1

[7] = Quantitative highthroughput screen to assess conditional lethalithy of P12 Ichikawa cells grown in Human Plasma-Like Medium with dialyzed fetal bovine serum (HPLM+ds) (AID 1963879); details: Potency: viability; note: potency is the fitted concentration of half-maximal effect; nearly all actives have a fitted effect of over 35% in size
Procedure, shortened: as §1

[8] = Quantitative highthroughput screen to assess conditional lethalithy of P12 Ichikawa cells grown in RPMI1640 with dialyzed fetal bovine serum (RPMI+ds) (AID 1963880); details: Potency: P12-Ichikawa viability
Procedure, shortened: as §1

[9] = Quantitative highthroughput screen to assess conditional lethalithy of SEM cells grown in Human Plasma-Like Medium with dialyzed fetal bovine serum (HPLM+ds) (AID 1963882)
Procedure, shortened: as §1

[10] = Quantitative highthroughput screen to assess conditional lethalithy of SEM cells grown in RPMI1640 with unreated serum (RPMI+s) (AID 1963883)
Procedure, shortened: as §1

[11] = Quantitative highthroughput screen to assess conditional lethalithy of SEM cells grown in RPMI1640 with dialyzed fetal bovine serum (RPMI+ds) (AID 1963884)
Procedure, shortened: as §1

[12] = molecular target: Polyprotein P1234 (Chikungunya virus (strain S27-African prototype)) (UniProt Q8JUX6); test: Secondary cell base assay for inhibitors of NSP2Pro Chikungunya virus (CHIKV) (AID 1964100; calls by dose curve; note: potency is the fitted concentration of half-maximal effect; nearly all actives have a fitted effect of over 70% in size)
UniProt Q8JUX6, sequence (Q8JUX6 whole entry, looked up): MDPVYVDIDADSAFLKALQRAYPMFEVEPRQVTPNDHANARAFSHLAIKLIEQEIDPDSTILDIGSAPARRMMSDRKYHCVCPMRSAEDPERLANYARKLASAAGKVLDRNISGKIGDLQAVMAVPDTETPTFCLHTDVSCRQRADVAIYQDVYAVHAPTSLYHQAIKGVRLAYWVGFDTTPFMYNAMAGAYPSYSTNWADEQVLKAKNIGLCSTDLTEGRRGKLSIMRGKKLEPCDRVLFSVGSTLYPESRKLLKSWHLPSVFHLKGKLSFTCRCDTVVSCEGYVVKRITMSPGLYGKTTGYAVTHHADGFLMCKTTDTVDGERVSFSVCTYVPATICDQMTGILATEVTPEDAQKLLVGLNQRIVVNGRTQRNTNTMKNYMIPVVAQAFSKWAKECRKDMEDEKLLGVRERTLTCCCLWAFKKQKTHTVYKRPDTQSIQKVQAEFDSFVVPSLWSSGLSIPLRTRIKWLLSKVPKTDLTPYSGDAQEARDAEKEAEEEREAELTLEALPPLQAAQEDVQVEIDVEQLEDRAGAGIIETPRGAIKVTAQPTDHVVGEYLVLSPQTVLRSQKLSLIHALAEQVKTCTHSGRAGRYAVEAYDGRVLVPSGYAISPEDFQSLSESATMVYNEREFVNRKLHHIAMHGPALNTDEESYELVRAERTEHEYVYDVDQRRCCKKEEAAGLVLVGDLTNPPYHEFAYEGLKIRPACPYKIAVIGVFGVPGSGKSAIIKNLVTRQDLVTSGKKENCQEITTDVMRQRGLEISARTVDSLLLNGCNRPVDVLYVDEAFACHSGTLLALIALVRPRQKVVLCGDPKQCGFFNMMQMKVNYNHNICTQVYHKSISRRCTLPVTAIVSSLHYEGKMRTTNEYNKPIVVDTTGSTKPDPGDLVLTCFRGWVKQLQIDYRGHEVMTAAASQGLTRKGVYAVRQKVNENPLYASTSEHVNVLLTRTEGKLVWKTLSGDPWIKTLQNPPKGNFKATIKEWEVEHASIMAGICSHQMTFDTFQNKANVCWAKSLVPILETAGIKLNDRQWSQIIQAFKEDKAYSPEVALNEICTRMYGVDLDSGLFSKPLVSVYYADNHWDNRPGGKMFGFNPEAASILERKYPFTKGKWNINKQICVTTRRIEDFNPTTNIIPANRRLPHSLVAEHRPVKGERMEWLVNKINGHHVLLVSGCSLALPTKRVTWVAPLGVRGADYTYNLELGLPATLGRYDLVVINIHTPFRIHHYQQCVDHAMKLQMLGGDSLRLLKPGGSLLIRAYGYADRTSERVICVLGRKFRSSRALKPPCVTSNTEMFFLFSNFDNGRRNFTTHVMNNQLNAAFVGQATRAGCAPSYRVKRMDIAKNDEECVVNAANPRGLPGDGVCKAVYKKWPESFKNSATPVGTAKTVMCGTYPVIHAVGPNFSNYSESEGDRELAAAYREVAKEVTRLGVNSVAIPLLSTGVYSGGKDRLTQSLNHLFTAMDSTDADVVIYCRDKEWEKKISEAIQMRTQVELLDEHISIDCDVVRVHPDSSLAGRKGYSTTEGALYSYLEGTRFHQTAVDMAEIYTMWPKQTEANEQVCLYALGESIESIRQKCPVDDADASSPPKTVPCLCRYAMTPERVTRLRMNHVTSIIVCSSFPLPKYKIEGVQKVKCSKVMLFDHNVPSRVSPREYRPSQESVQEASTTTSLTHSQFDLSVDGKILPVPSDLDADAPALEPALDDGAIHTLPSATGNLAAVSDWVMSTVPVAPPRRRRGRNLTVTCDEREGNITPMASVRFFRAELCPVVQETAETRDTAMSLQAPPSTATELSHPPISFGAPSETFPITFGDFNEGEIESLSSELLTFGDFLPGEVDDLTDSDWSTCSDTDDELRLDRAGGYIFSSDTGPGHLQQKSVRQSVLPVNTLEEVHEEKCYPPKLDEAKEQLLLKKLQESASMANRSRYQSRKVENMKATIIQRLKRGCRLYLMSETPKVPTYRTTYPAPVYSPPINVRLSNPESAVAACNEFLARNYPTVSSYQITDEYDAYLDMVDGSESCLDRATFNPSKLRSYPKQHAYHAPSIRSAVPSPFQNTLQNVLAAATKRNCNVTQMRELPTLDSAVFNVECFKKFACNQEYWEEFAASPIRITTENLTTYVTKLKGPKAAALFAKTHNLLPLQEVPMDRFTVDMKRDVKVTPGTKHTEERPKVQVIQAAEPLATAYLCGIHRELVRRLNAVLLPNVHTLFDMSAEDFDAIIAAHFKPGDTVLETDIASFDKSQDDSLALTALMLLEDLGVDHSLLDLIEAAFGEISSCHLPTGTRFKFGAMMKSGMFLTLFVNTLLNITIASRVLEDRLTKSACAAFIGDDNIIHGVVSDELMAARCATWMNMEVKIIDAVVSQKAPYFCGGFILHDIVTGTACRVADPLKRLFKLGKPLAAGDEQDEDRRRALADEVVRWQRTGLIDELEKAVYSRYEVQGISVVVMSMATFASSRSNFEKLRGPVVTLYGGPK

[13] = molecular target: Polyprotein P1234 (Chikungunya virus (strain S27-African prototype)) (UniProt Q8JUX6); test: Selectivity profile for inhibitors of NSP2Pro chikungunya virus (CHIKV): Full length NSP2 enzyme counterscreen (CHIKV-NSP2) (AID 1964101; calls by dose curve; note: potency is the fitted concentration of half-maximal effect; nearly all actives have a fitted effect of over 65% in size); details: Full-length CHIKV NSP2 protease enzymatic counterscreen; activity change, negative = inhibition: at 50.7 µM (top of the series)
[14] = molecular target: Furin (Homo sapiens) (UniProt P09958); test: Selectivity profile for inhibitors of NSP2Pro chikungunya virus (CHIKV): Human furin counterscreen (AID 1964102; calls by dose curve; note: potency is the fitted concentration of half-maximal effect)
UniProt P09958, sequence (P09958 whole entry, looked up): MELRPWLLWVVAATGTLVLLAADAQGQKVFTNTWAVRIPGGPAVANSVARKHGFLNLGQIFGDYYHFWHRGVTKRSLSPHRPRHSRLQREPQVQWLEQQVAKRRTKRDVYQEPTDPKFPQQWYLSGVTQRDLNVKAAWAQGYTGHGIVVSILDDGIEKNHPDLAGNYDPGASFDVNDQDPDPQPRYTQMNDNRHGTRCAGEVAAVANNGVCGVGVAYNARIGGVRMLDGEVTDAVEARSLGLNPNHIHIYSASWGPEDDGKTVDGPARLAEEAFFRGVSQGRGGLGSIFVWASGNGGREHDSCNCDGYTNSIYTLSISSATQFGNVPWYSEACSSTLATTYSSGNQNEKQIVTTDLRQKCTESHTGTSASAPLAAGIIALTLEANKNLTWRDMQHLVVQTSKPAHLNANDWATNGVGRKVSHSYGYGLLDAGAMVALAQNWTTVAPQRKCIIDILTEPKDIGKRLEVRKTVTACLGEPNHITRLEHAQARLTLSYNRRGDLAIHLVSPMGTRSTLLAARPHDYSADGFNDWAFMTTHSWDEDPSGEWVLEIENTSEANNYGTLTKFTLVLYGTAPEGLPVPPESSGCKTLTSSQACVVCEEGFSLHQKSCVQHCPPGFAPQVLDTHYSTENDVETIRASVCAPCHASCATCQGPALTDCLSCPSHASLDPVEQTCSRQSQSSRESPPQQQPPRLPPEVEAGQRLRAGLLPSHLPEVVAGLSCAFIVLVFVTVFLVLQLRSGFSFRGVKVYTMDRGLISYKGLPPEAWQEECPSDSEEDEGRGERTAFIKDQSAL

[15] = system: Hepatitis C virus NS3/4A protease; test: Selectivity profile for inhibitors of NSP2Pro chikungunya virus (CHIKV): NS34A-HCV Counterscreen (AID 1964106; calls by dose curve; note: potency is the fitted concentration of half-maximal effect; nearly all actives have a fitted effect of over 55% in size); details: activity change, negative = inhibition: at 50.9 µM (top of the series) unless noted
Tags give direction and shape of the fitted curve.

O=C(O)CCCc1ccc(N(CCCl)CCCl)cc1
Potency [1]: inconclusive: 21.9 µM [inhibitor, partial curve] | Potency [2]: inactive and inconclusive: 3.32 µM [cytotoxic, full curve] | Potency [3]: inactive and inconclusive: 2.63 µM [cytotoxic, full curve] | Potency [4]: inconclusive: 33.2 µM [cytotoxic, single point] | Potency [5]: inconclusive: 37.2 µM [cytotoxic, single point] | Potency [6]: inconclusive: 26.4 µM [cytotoxic, single point] | Potency [7]: inconclusive: 37.2 µM [cytotoxic, single point]

CN(C)[C@@H]1C(=O)C(C(N)=O)C(=O)[C@@]2(O)C(=O)C3C(=O)c4c(O)ccc(Cl)c4[C@@](C)(O)C3C[C@@H]12 (stereo partly specified)
Potency [1]: inconclusive: 13.5 µM [inhibitor, partial curve]

CNCC(=O)c1ccc(O)c(O)c1
Potency [1]: inconclusive: 0.617 µM [inhibitor, full curve] | Potency [2]: inconclusive: 10.6 µM [cytotoxic, partial curve, poor fit] | Potency [3]: inconclusive: 21.1 µM [cytotoxic, single point]

CNCC(O)c1ccc(O)cc1 (stereo unspecified)
Potency [6]: inactive | Potency [8]: inactive

CC(NC(C)(C)C)C(=O)c1cccc(Cl)c1 (stereo unspecified)
Potency [9]: inconclusive: 1.32 µM [cytotoxic, partial curve, poor fit] | Potency [10]: inconclusive: 2.09 µM [cytotoxic, partial curve, poor fit] | Potency [11]: inconclusive: 1.48 µM [cytotoxic, partial curve, poor fit]

Cc1ccc([N+](=O)[O-])[c]2c1[O][Hg]2
Potency [12]: active: 1.41 µM | Potency [13]: inconclusive: 4.61 µM [inhibitor, full curve, poor fit] | Potency [14]: active: 1.3 µM | Potency [15]: active: 0.259 µM

O=[N+]([O-])C(Br)(CO)CO
Potency [15]: inconclusive: 0.41 µM [inhibitor, full curve]

COC[C@@H]1OC(=O)/C(=C\N(C)CCCN(C)C)C2=C(O)C(=O)C3=C([C@@H](OC(C)=O)C[C@@]4(C)[C@@H]3CC[C@@H]4O)[C@@]21C
Potency [2]: inconclusive: 4.61 µM [cytotoxic, full curve] | Potency [3]: inconclusive: 5.17 µM [cytotoxic, full curve]

CCCCCn1cc(C(=O)Cc2ccccc2OC)c2ccccc21
Potency [2]: inconclusive: 16.4 µM [cytotoxic, partial curve] | Potency [3]: active: 20.6 µM

CN1C2CCC1CC(OC(=O)N1Cc3ccccc3NC1=O)C2 (stereo unspecified)
Potency [2]: inactive | Potency [3]: inactive

COC(=O)C12C(=O)C(C)(O)C(=O)C1(C)C(C)=CC1C34CCC(OC3=O)C(C)(C)C4CCC12C (stereo unspecified)
Potency [2]: inactive | Potency [3]: inconclusive: 0.796 µM [rising, full curve, poor fit]

CC(C)(O)/C=C/C(=O)[C@](C)(O)[C@H]1[C@H](O)C[C@@]2(C)[C@@H]3CC=C4[C@@H](C[C@H](O)C(=O)C4(C)C)[C@]3(C)C(=O)C[C@]12C
Potency [2]: active: 0.317 µM | Potency [3]: active: 0.282 µM

Oc1ccc2c3c1O[C@H]1c4[nH]c5c(N=C=S)cccc5c4C[C@@]4(O)[C@@H](C2)N(CC2CC2)CC[C@]314
Potency [2]: inconclusive: 29.1 µM [cytotoxic, single point] | Potency [3]: inconclusive: 16.4 µM [cytotoxic, partial curve, poor fit]

Cc1nnc2n1-c1sc(CCC(=O)N3CCOCC3)cc1C(c1ccccc1Cl)=NC2
Potency [2]: inactive | Potency [3]: inactive

CN1CN(c2ccccc2)C2(CCN(CCCC(=O)c3ccc(F)cc3)CC2)C1=O
Potency [2]: inactive | Potency [3]: inconclusive: 29.1 µM [cytotoxic, single point]

COC1CC(O[C@H]2CC[C@@]3(C)C(CCC4C3CC[C@]3(C)[C@@H](C5=CC(=O)OC5)CC[C@]43O)C2)OC(C)C1O (stereo partly specified)
Potency [2]: inconclusive: 0.01 µM [cytotoxic, full curve, poor fit] | Potency [3]: inconclusive: 0.0112 µM [cytotoxic, full curve, poor fit]

CCOP(=O)(OCC)Oc1ccc2c(C)cc(=O)oc2c1
Potency [2]: inactive | Potency [3]: inconclusive: 20.6 µM [cytotoxic, partial curve, poor fit]

CN1CCC2=C(C1)c1ccccc1Cc1ccccc12
Potency [2]: inconclusive: 23.1 µM [cytotoxic, partial curve] | Potency [3]: inconclusive: 29.1 µM [cytotoxic, single point]

CC(Cc1ccccc1)NCc1ccccc1Cl (stereo unspecified)
Potency [2]: inactive | Potency [3]: inconclusive: 23.7 µM [cytotoxic, single point]

CN1C[C@@H]2CN(c3ccc(-c4ccccc4)nn3)C[C@@H]2C1
Potency [2]: inactive | Potency [3]: active: 0.58 µM

CN1C(=S)CN=C(c2ccccc2)c2cc(Cl)ccc21
Potency [2]: inconclusive: 15 µM [cytotoxic, partial curve] | Potency [3]: inconclusive: 26.6 µM [cytotoxic, single point]

CCC1CN2CCc3cc(OC)c(OC)cc3C2CC1CC1=NCCc2cc(O)c(OC)cc21 (stereo unspecified)
Potency [2]: inconclusive: 7.96 µM [cytotoxic, partial curve, poor fit] | Potency [3]: inconclusive: 7.09 µM [cytotoxic, partial curve]

C/C=C(\C)C(=O)O[C@H]1[C@H](OC(C)=O)[C@]2(CO)[C@H](O)[C@H](O)[C@]3(C)C(=CCC4[C@@]5(C)CC[C@H](O[C@@H]6O[C@H](C(=O)O)[C@@H](O)[C@H](O[C@@H]7OC[C@H](O)[C@H](O[C@@H]8OC[C@H](O)[C@H](O)[C@H]8O)[C@H]7O)[C@H]6O[C@@H]6O[C@H](CO)[C@@H](O)[C@H](O)[C@H]6O)C(C)(C)C5CC[C@]43C)[C@@H]2CC1(C)C (stereo partly specified)
Potency [2]: inconclusive: 2.75 µM [cytotoxic, partial curve, poor fit] | viability, % of control [3]: inactive: 68.2% [at 9.25 µM]

CCOC(=O)c1ncn2c1CN(C)C(=O)c1c(I)cccc1-2
Potency [2]: inactive | Potency [3]: inconclusive: 16.4 µM [cytotoxic, single point]

COc1ccc(CN(C(=O)[C@@H](N)Cc2c(C)cc(C(N)=O)cc2C)[C@@H](C)c2ncc(-c3ccccc3)[nH]2)cc1C(=O)O
Potency [2]: inactive | Potency [3]: inactive

CNC(C)(C)Cc1ccccc1
Potency [2]: inactive | Potency [3]: inactive

C=C1C2(C)CC3C(C)(O)C4=CC(=O)OC(C)(C)C4=CCC3(C)C13C(=O)OC(C)C3(O)C2=O (stereo unspecified)
Potency [2]: inactive | Potency [3]: inconclusive: 1.42 µM [cytotoxic, partial curve, poor fit]

C=CC[C@]1(O)CC[C@H]2[C@@H]3CCC4=CC(=O)CCC4=C3C=C[C@@]21C
Potency [2]: inconclusive: 4.22 µM [cytotoxic, partial curve, poor fit] | Potency [3]: inconclusive: 1.06 µM [cytotoxic, partial curve, poor fit]

CCC1(c2ccccc2)C(=O)N(COC)C(=O)N(COC)C1=O
Potency [2]: inactive | Potency [3]: inactive

CC(=O)[C@H]1CC[C@H]2[C@@H]3CC[C@H]4C[C@H](O)CC[C@]4(C)[C@H]3C(=O)C[C@]12C
Potency [2]: inconclusive: 33.5 µM [cytotoxic, single point] | Potency [3]: inconclusive: 15 µM [cytotoxic, partial curve, poor fit]

C[C@H](NC(=O)Cc1cc(F)cc(F)c1)C(=O)N[C@@H]1N=C(c2ccccc2)c2ccccc2N(C)C1=O
Potency [2]: inconclusive: 4.61 µM [cytotoxic, full curve, poor fit] | Potency [3]: inactive

CCC1(c2cccc(O)c2)CCCCN(C)C1 (stereo unspecified)
Potency [2]: inconclusive: 33.5 µM [cytotoxic, single point] | Potency [3]: inactive

O=C(O)CCCCCCNC1c2ccccc2CCc2ccccc21
Potency [2]: active: 0.473 µM | Potency [3]: inactive

COC1CC(O[C@H]2CC[C@]3(C=O)C4CC[C@]5(C)[C@@H](C6=CC(=O)OC6)CC[C@]5(O)[C@@H]4CC[C@]3(O)C2)OC(C)C1O[C@@H]1O[C@H](CO)[C@@H](O)[C@H](O)[C@H]1O (stereo partly specified)
Potency [2]: active: 0.0862 µM | Potency [3]: inconclusive: 0.0485 µM [cytotoxic, full curve]

C[N+]1(C)[C@@H]2CC[C@H]1CC(OC(=O)C(CO)c1ccccc1)C2 (stereo partly specified)
Potency [2]: inconclusive: 13.3 µM [cytotoxic, single point] | Potency [3]: inactive

O=C(C[C@@H]1NCCC[C@H]1O)Cn1cnc2ccccc2c1=O
Potency [2]: inconclusive: 0.231 µM [cytotoxic, full curve] | Potency [3]: active: 0.231 µM

CC(=O)NCCc1c[nH]c2ccccc12
Potency [2]: inconclusive: 16.8 µM [cytotoxic, partial curve, poor fit] | Potency [3]: inconclusive: 37.5 µM [cytotoxic, single point]

CC1(C)C(=O)N(c2ccc(C#N)c(C(F)(F)F)c2)C(=O)N1CCCCO
Potency [2]: inconclusive: 25.9 µM [cytotoxic, single point] | Potency [3]: inconclusive: 14.6 µM [cytotoxic, partial curve]

C=CCC1(C(C)CC)C(=O)NC(=O)NC1=O (stereo unspecified)
Potency [2]: inactive | Potency [3]: inactive

CC(C)=CCC[C@]1(C)C=Cc2c(O)c3c(c(CC=C(C)C)c2O1)O[C@]12C(=C[C@@H]4CC1C(C)(C)O[C@@]2(C/C=C(/C)C(=O)O)C4=O)C3=O
Potency [2]: active: 0.517 µM | Potency [3]: active: 0.461 µM

CC(=O)O[C@H]1C[C@@H](OC(C)=O)C(C)(C)C2C[C@@H](O)[C@]3(C)C(CC[C@@]4(C)[C@H](C5=CC(=O)OC5O)C[C@H]5O[C@]543)[C@]21C (stereo partly specified)
Potency [2]: inconclusive: 7.09 µM [cytotoxic, partial curve] | Potency [3]: inconclusive: 7.96 µM [cytotoxic, single point]

Nc1ccncc1
Potency [2]: inconclusive: 4.73 µM [cytotoxic, partial curve, poor fit] | Potency [3]: inactive
